Test results reported in the supplement of paper PMC10338343.
± gives the standard deviation. The entries are a selection whose mix differs from that of the whole data set.

Test system: MIWI (PIWIL1) piRISC loaded with piRNA #1 (30 nt)
Test: pre-steady-state target cleavage rate (min^-1); MIWI and MILI are mouse PIWI proteins and EfPiwi is from a freshwater sponge; tags in brackets are library labels; higher = faster piRNA-guided slicing of the target
Details: guide: piRNA #1 5'p-UGAGGUAGUAGGUUGUAUAGUAUCCAGAGG; auxiliary factor: 500 nM mouse GTSF1
Procedure, shortened: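 Cleave-'n-Seq reactions paired 0.1 nM transcribed, DNA-blocked target RNA library with 1 nM active affinity-purified piRISC holding one synthetic guide, plus or minus 500 nM GTSF1 partner protein, in HEPES–potassium acetate buffer at 33 °C for 0–8 or 0–960 min. After sequencing of uncleaved targets and normalisation to depth and weakly complementary targets, the pre-steady-state cleavage rate was taken from a burst-and-steady-state fit. Three trials were pooled, and k3 was capped at 0.0001 min^-1.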

Sequence	pre-steady-state target cleavage rate
CCUCUGGAUACUAUACAACCUACUACCUCCA	2.27 ± 0.14
GGAGACCUAUCUAUUCAACCUACUUCCUCA	0.00896 ± 0.0025
CCUCUGGAUACUAUACAACGAACUACCUCA	0.0274 ± 0.0066
GGAGACGAUACUAUACAACCAACUACCUGA	0.0948 ± 0.012
GCUCUGGAUAGUAUACAACCUACUACCUCA	1.04 ± 0.051
GGAGACCUAACUAUACAACCAACUACGUCA	0.0099 ± 0.0034
GGACUGGAUACUAUAGUUCCUACUACCUCA	0.165 ± 0.03
GCUCUGGAUACUAUACAACCUACAUACCUCA	1.87 ± 0.16
GGUCAGGAUACUAUACAACCUUCUACCUCA	0.64 ± 0.039
GGAGAGGAUACAAUACUACCUACUACCUCA	0.74 ± 0.052
GGAGUGGAUACUUUACAACCUACUACCACA	0.251 ± 0.024
GGAGACCUAUGAUAUGUUCCUAGCUACCUCA	< 0.0001
GGAGACCUAACUAUACAGCCUACUACCUCA	0.287 ± 0.03
GGAGAGCAUACUAUAGAACCUACUACCUCA	0.877 ± 0.047
GGUCUGGAUACUAUACAACCAACUACGUCA	0.0761 ± 0.011
GGUCUGGAUACAUUACAACCUACUACCUCA	1.57 ± 0.12
GGACUGGAUACUAUACAACCUACUACCUCU [g2:g27:cont:t1U]	1.36 ± 0.11
GGAGACGAUACUAUACAACCAACUACGUCA	0.105 ± 0.013
GGAGAGGAUACUAUACGACCUACUACCUCA	1.28 ± 0.079
GGAGUGGAUACUAUACAACCUAGAUCCUCA	0.00605 ± 0.0017

Sequence	pre-steady-state target cleavage rate
CCUCUGGAUUCAAUACAACCUACUACCUCA	0.788 ± 0.091
GGAGACCUAUCUAUACAACCUACUAUCUCA	0.314 ± 0.044
GGUCUCGAUACUAUACAUCCUACUACCUCA	1.72 ± 0.093
GGAGACCAUACUGUACAACCUACUACCUCA	0.439 ± 0.034
GGAGACCUAACUAUACCACCUACUACCUCA	0.351 ± 0.041
GGAGACCUAUCUAUACAACCUACCACCUCA	0.678 ± 0.06
GGAGUGGAUACUAUACAACCUACUACCCA	0.238 ± 0.052
GGAGACGAUACUAUACAACCUACUGCCUCA	0.993 ± 0.07
GGAGACCAUACUAACAACCUACUACCUCA	0.502 ± 0.046
GGAGACCUAACUAUACAACCUUCUACGUCA	0.108 ± 0.023
GGAGUGCAUACUAUUCAACCUACUACCUCA	1.43 ± 0.11
GGUCUGGAUACUAUUCAACCUACUUCCUCA	0.0113 ± 0.0031
GGAGACGAUAGCUAUACAACCUACUACCUCA	0.785 ± 0.061
CCUGUGGAUACUAUACAACCUACUACCUCA	1.86 ± 0.11
GGAGACCUAUGAUAUGUUGCAACUUCCUCA	< 0.0001
GGAGACCUUACUAUACAACCUACUACCACA	1.42 ± 0.1
GGAGACCUAACUAUACAACCUACUAGGAGA [g6:g21:cont:t1A]	0.0453 ± 0.015
CCUCUGGAUACUAUACAACCUACAAGCUCA	0.925 ± 0.11
GGACUGGAUACUAUACAACCUACUACUUCA	1.09 ± 0.1
GCUCUGGAUACUAUACAACCUACAACCACA	0.757 ± 0.098
